Source: paper PMC12136788
This is one part of the list.

T1: UNK ZnF1-3 (human, UniProt Q9C0B0 31-174)
T1 sequence: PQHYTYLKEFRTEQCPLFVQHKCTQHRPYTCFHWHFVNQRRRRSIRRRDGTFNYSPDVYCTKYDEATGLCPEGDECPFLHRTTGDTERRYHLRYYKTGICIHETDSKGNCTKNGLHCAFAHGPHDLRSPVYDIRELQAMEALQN

B1: chr4:124789969:124789970:+_ENSMUSG00000028863_ENSMUST00000154689|mus_mus|FALSE|FALSE (ssRNA)
RNA: GGGAGUUCUACAGUCCGACGAUCAUAAACACACACAGCCUUCCUAGAUACACAAACACACACAGCCUUCCUAGAUACACAAACACAAACACACACACACACACACACACACACACACACACACACACACACACACAGAGCCUUCAACAGAGGAUUGAGCAUCA
B2: 22862260_22862380_787_3pUTR_ENSG00000150867_ENST00000376573|human|control|control (ssRNA)
RNA: GGGAGUUCUACAGUCCGACGAUCCACAGACAAACGGUGGCUGAAUACAUUUCUUGUAACUAUCACAUAUAUUUCAACUCCAUCAACAUUAAGCCGGUACAUGCCCAAGAACUGGGGAAGAAGGGUGAUCCCAUGACAUUCCACCAACAGAGGAUUGAGCAUCA
B3: chrX:71549400:71549401:+_ENSMUSG00000019087_ENSMUST00000019231|mus_hu|mus_mus_mus_hu_False|98_98 (ssRNA)
RNA: GGGAGUUCUACAGUCCGACGAUCGCAGUAGGAAGAGCAAACCUUUCCAGUCCAGUGCGCUGCAGGGUGGGAAAGCAACAACACGGACACCGUCCCACCCUCAACCCCCCCACUGGCACAGGGUCACACAAUCUGGGUCAAAGACAACAGAGGAUUGAGCAUCA
B4: chr12:4461766:4461767:+_ENSG00000078237_ENST00000179259|hu_hu|FALSE|FALSE (ssRNA)
RNA: GGGAGUUCUACAGUCCGACGAUCCUGUAGGUUCAUACAAAUACACUGAACCGUUGGUUUAACUUCUCUUCCUUCCUCAAAGUUUAUGAUAAAGAGACUCAUCCCUGUAUUGGGAGUGACUGACAUAAGUUCAGAUCUGCUCAGCAACAGAGGAUUGAGCAUCA
B5: chr12:42180722:42180723:-_ENSMUSG00000036295_ENSMUST00000043884|mus_hu|motif|central (ssRNA)
RNA: GGGAGUUCUACAGUCCGACGAUCCUGUAGGAGAAGAAUCUGUGUGUUAGCUGGCAAUCUGGCUGGGAAAGUUAAAAGACCGGAAUCAUUACAAUCCACUGUAGAUGCUUCCAUAUAAAUGGAUCUGGGUGUAAACCAAGGCCUCAACAGAGGAUUGAGCAUCA
B6: chr2:24222969:24222970:+_ENSG00000173960_ENST00000309033|hu_hu|motif|central (ssRNA)
RNA: GGGAGUUCUACAGUCCGACGAUCAUUCUAAACAAUACAGCUAUUUAAUAUAUCUUGAUAACUGGUAUUUGAAAAUAAGUCGGUUUUUCUGGGUAGUCUUUUGGAGAAAGUGCACUGAAUAUAGUUUCCAGUCAUAUGCUACUUCAACAGAGGAUUGAGCAUCA
B7: chr4:106720802:106720803:+_ENSMUSG00000061887_ENSMUST00000030367|mus_mus|motif|central (ssRNA)
RNA: GGGAGUUCUACAGUCCGACGAUCAGUUUUGUCCUUCAUGUUUUACGGAAUAAAAGUUUGGCCUUUUUAUUGCAUGAAACGGAAAUUGGGGAAGGUGGGGGAGUGAAUGGGAGGGUGGAGGGAGCAGGAGAUGCCCUCCCCCAGCAACAGAGGAUUGAGCAUCA
B8: chr17:87833181:87833182:-_ENSMUSG00000036438_ENSMUST00000040440|perfect_dup|motif|central (ssRNA)
RNA: GGGAGUUCUACAGUCCGACGAUCCGGGCUUAGAUAUAGCCAGAGUAAGCCACAUGCAACAUGUUACUUCAUCAAUUUUCGGAAAUAAGGUUUAAGGACAAUGACAGUAAGAUAAGGGAAGAAAACAUGGAGGAAUGAAGUCCUCAACAGAGGAUUGAGCAUCA
B9: chr14:56483160:56483161:+_ENSMUSG00000075592_ENSMUST00000168479|mus_hu|motif|central (ssRNA)
RNA: GGGAGUUCUACAGUCCGACGAUCAGCCUGUAGUUGGGGUGUAGAGGUCAAGGGUGGCCCUAUCUGUGGGAGAUCCGAGCGGACUUUGUCUUUUACAUCUGAGCUCCCAGGGACCACCAAUAAACUCGUAACUUUUGGGGAAAUCAACAGAGGAUUGAGCAUCA
B10: chr11:115359427:115359428:-_ENSMUSG00000020737_ENSMUST00000021083|mus_mus|FALSE|FALSE (ssRNA)
RNA: GGGAGUUCUACAGUCCGACGAUCUCCCAAGCAUGGGACAACAAACAGACAGACAGAAGGACAGAGUUCCAACACAAGAAGCUAACCCAAGACCAGGCUGGACUUGCCGCCAGGGGGGUUUCUCCUGGAUGGCACUGGGGCUGGCAACAGAGGAUUGAGCAUCA
B11: chr7:27831639:27831640:+_ENSG00000106052_ENST00000265393|hu_hu|FALSE|FALSE (ssRNA)
RNA: GGGAGUUCUACAGUCCGACGAUCAACUUCUUGCCGAGUUGCCUGAACCUGUUCCUCUGCUUUACGAAGUUGCUCCUUUAAAAAACAAGUAUCUUCUUUACUUGAGGUUGUAAGCAGGAAAGUUCUUUGCAGAUUUUCCUUUUCCAACAGAGGAUUGAGCAUCA
B12: chr11:4127340:4127341:+_ENSG00000167325_ENST00000300738|hu_mus|hu_hu_hu_mus_False|38_78 (ssRNA)
RNA: GGGAGUUCUACAGUCCGACGAUCGGCAUAGUCAGGGUGCUUCGUGGUCAAGGUCGCAGCUGUUUCAGCAGCCAGGGUGUCCAGUUCCACUGUGGUGACCCCACUGUAUAGGCCUUGGAUUACUUUCAUGGUGAUCUGAGCAGGCAACAGAGGAUUGAGCAUCA
B13: chr7:97319096:97319097:+_ENSMUSG00000039361_ENSMUST00000049537|mus_mus|motif|central (ssRNA)
RNA: GGGAGUUCUACAGUCCGACGAUCAUCUUUGAAGAGGAGCAUGAAGGCAGCAUUUAUUACCCCAUUUGUAAGUUCAUUACGGUUAACAUUAAAAUCAAGAAGUGCAUCCAUUUGAUUUUGGAUAAUUGGUACAGUUUUUAAGAGCAACAGAGGAUUGAGCAUCA
B14: 101371430_101371658_3074_CDS_ENSG00000066422_ENST00000312938|human|control|control (ssRNA)
RNA: GGGAGUUCUACAGUCCGACGAUCUCUUCCUUUCUUCCCAUGGGUAGCUUUCUUUACAUGCCUUCUGAACAAAGCUUUUUCAUAAAAUUCUUUGCCACAUAUAUUACACCUAUAAGGCUCAGUGACAGAAUGAGACUUCACAUGCAACAGAGGAUUGAGCAUCA

These binders were tested against T1, UNK ZnF1-3 (assay: nsRBNS (natural sequence RNA bind-n-seq); RBNS binding buffer (assumed for nsRBNS): 25 mM Tris pH 7.5, 150 mM KCl, 3 mM MgCl2, 0.01% Triton X-100, 500 ug/ml BSA, 20 U/ml SUPERase-In, 4 C; UNK is unkempt and MSI1 is Musashi-1; names of the RNAs are library labels; protein concentration not given here; high values mean tight binding).

Row | Binder | binding signal [enrichment R]
1 | B1 | 2.49
2 | B2 | 1.27
3 | B3 | 0.737
4 | B4 | 1.03
5 | B5 | 1.34
6 | B6 | 1
7 | B7 | 0.937
8 | B8 | 2.55
9 | B9 | 1.01
10 | B10 | 1.49
11 | B11 | 0.34
12 | B12 | 0.936
13 | B13 | 2.12
14 | B14 | 1.1
